According to PubChem BioAssay AID686979 (National Center for Advancing Translational Sciences (NCATS), 2013):
About 50,000 (12%) of roughly 420,000 compounds were called active. The shares of active, inactive and inconclusive entries below differ from those in the screen. Calls follow the shape of the dose curve; as a rule, active = well fitted inhibition curve with a large enough effect; inconclusive = small, poorly fitted or top-dose-only effect; inactive = flat fitted curve, though single readings scatter. Potencies of inconclusive entries are left out as doubtful fits.
% is scaled to controls: 0 for no effect and ±100 for the full control effect; potency is read from the fitted curve at half-maximal effect; tags tell the direction and shape of the fitted curve.

Assay: qHTS for Inhibitors of human tyrosyl-DNA phosphodiesterase 1 (TDP1): qHTS in cells in presence of CPT; also: nearly all actives have a fitted effect of over 55% in size
Conditions: chicken DT40 Tdp1-/-;hTDP1 cells + 20 nM CPT, ATP luminescence, 48 h; activity change, negative = growth inhibition: at 46.2 µM (top of the series) unless noted
Summary of the method: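 Cell growth measured by CellTiter-Glo luminescence after a minimum 48 h, 37 C compound exposure with 20 nM CPT in Tdp1-knockout DT40 cells stably expressing hTDP1, seeded 400/well; qHTS titration format.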
For `CC1(C(=O)NS(=O)(=O)c2ccc3c(c2)CCO3)CCN1C(=O)CCc1ccc(Cl)cc1Cl` (stereo not given), the activity change, negative = growth inhibition was inconclusive: -32.1% [inhibitor]. For `CC/C(=N\NC(=O)c1ccc(CN(C)S(=O)(=O)c2ccc(C)cc2)cc1)c1ccc(OC(F)F)cc1`, the Potency was inconclusive [inhibitor, single point]. For `O=S(=O)(NCCc1csc2nc(-c3ccccc3)nn12)c1ccc(Oc2ccccc2)cc1`, the Potency was inconclusive [inhibitor, single point]. For `Cc1cccc(NC(=O)c2ccc(C)c(S(=O)(=O)N3CCCCC3)c2)n1`, the Potency was inconclusive [inhibitor, single point]. With `Cc1cc(NC(=O)COC(=O)c2c(C)c(C)c(C)c(C)c2C)no1` the Potency was inconclusive [inhibitor, single point]. With `CCC(c1nnc(SCC(=O)Nc2ccc(C(=O)Nc3ccccc3OC)cc2)o1)N(C)C` (stereo not given) the “activity change, negative = growth inhibition” value was inactive: -0.385%. With `COc1ccc(OC)c(NC(=O)Cn2cc(C#N)c3cc(Br)ccc32)c1` the Potency was inconclusive [inhibitor, partial curve]. With `Cn1nc(-c2ccc(C(=O)NCC3CCCO3)cc2)c2ccccc2c1=O` (stereo not given) the Potency was inconclusive [inhibitor, single point]. With `O=C(c1cn(-c2ccccc2)nc1-c1cccs1)N1CCN(c2ccccc2)CC1` the Potency was active: 7.31 µM. With `CCOC(=O)[C@]12CCC=C1N(Cc1cccc3ccccc13)C(=O)[C@H](CC(=O)N1CCN(C(=O)C3CC3)CC1)C2` the Potency was inconclusive [inhibitor, single point]. For `CC1CCCCC12NC(=O)N(CC(=O)OCc1ccc(Br)cc1)C2=O` (stereo not given), the “activity change, negative = growth inhibition” value was inactive: -27.6%. For `Cn1cc(Br)c(NC(=O)/C=C/C(=O)O)n1`, the “activity change, negative = growth inhibition” value was inactive: 1.99%. With `COc1cccc(Cn2c(=O)cnc3cnc(OCc4ccccc4)nc32)c1` the “activity change, negative = growth inhibition” value was inactive: -6.23%. With `CCN(CC)CCNCc1ccc(-c2ccc(Cl)cc2)o1` the Potency was inconclusive [inhibitor, single point]. With `CN(C)CCn1c2c(c(SCC(=O)Nc3cccc(C(F)(F)F)c3)nc1=O)CCCC2` the Potency was inconclusive [inhibitor, single point]. In the case of `O=S(=O)(N/N=C/c1ccccc1OCc1ccc(Cl)cc1)c1ccccc1`, the Potency is reported as inconclusive [inhibitor, single point]. In the case of `Cc1ccc(Cl)cc1N1CCN(C(=O)c2noc3c2CCCC3)CC1`, the Potency is reported as active: 11.6 µM. With `CCc1cc(-c2nnn(CCC3COCCO3)c2CC)ccc1-c1cn(CCc2c[nH]c3ccccc23)nn1` (stereo not given) the Potency was active: 16.4 µM. In the case of `C=CC1=C2C=C(C3CC3)N(C3CC3)C=C2C(=O)C(C)(OC(=O)c2ccco2)C1=O` (stereo not given), the activity change, negative = growth inhibition is reported as inconclusive: -31.9% [inhibitor]. For `Oc1ccc(-c2cn3c(n2)SCC3)cc1O`, the Potency was inconclusive [inhibitor, single point]. For `O=C(NCCc1c[nH]c2ccccc12)C(=O)NCC1OCCCN1S(=O)(=O)c1ccc(F)cc1` (stereo not given), the Potency was active: 18.4 µM. With `COc1ccc(C(=O)c2c[nH]c3ccccc23)cc1` the “activity change, negative = growth inhibition” value was inactive: -19.4%. For `CCc1ccccc1NC(=O)CN(C)Cc1c(O)ccc2ccccc12`, the “activity change, negative = growth inhibition” value was inactive: -29%. With `COc1ccc(Cl)cc1NC(=O)Cn1nnc2sc(-c3ccccc3)cc2c1=O` the Potency was inconclusive [inhibitor, single point]. In the case of `CCOC(=O)c1ccc(N2N=C(C)/C(=C/C=C/c3ccco3)C2=O)cc1`, the Potency is reported as inconclusive [inhibitor, partial curve]. With `Cc1[nH]n(-c2ccccc2)c(=O)c1C=Nc1ccc(S(=O)(=O)Nc2nccs2)cc1` the Potency was inconclusive [inhibitor, single point]. With `CN(C)c1ccc(NC(=O)Cn2cc(S(=O)(=O)Cc3ccccc3Cl)c3ccccc32)cc1` the Potency was inconclusive [inhibitor, single point]. In the case of `c1ccc(-c2nc3ccccc3c3nncn23)cc1`, the Potency is reported as inconclusive [inhibitor, single point]. With `O=C(Nc1cccc(Cl)c1)Nc1ccon1` the Potency was inconclusive [inhibitor, single point]. In the case of `CCOC(=O)Cn1c(-c2cccnc2Cl)nc2cc(C)c(C)cc21`, the “activity change, negative = growth inhibition” value is reported as inactive: -23.5%. For `CCOC(=O)[C@]12CCCC=C1N(CCC1=CCCCC1)C(=O)[C@H](CC(=O)NCCCCc1ccccc1)C2`, the Potency was inconclusive [inhibitor, single point]. For `COc1ccc(CCNC(=O)CCCCn2c(=O)c3ccccc3n(Cc3ccccc3)c2=O)cc1OC`, the Potency was inconclusive [inhibitor, single point]. In the case of `Clc1cccc(-n2ncc3c(NC4CCCCCC4)ncnc32)c1`, the Potency is reported as active: 20.6 µM. With `Fc1ccccc1N1CCN(c2ncnc3c2nc2n3CCCC2)CC1` the Potency was inconclusive [inhibitor, single point]. For `Cc1cc(C(=O)CSc2nnnn2C)c(C)n1Cc1ccco1`, the Potency was inconclusive [inhibitor, single point]. For `Cc1ccc(NC(=O)CSc2nc(N)c3cc4c(nc3n2)CCCC4)cc1`, the Potency was active: 16.4 µM. In the case of `CN1CCC(=O)N([C@H](CSc2ccc(Br)cc2)c2ccccc2)CC1`, the Potency is reported as inconclusive [inhibitor, single point]. With `CCc1ccc(CN(Cc2ccco2)C(=O)c2cc(-c3ccc(C)c(F)c3)on2)cc1` the Potency was inconclusive [inhibitor, single point]. For `COc1cc(NC(=O)COc2ccccc2[N+](=O)[O-])ccc1NC(=O)c1cccs1`, the Potency was inconclusive [inhibitor, single point]. With `CCCCN(C)c1nnc(NC(=O)Nc2ccc(Br)c(C)c2)s1` the “activity change, negative = growth inhibition” value was inactive: -27.6%. In the case of `C/C(=N\NC(=O)CSc1nnc(C)s1)c1ccc(Cl)cc1`, the “activity change, negative = growth inhibition” value is reported as inactive: 3.35%. With `COc1ccc2c(c1)[C@H]1[C@H](CO2)[C@H](c2ccccc2)[C@]2(C)C(=O)Nc3ccc(Br)cc3C(=O)N12` the Potency was active: 16.4 µM. For `OCCNc1ncnc2c1ncn2[C@H]1CN(Cc2ccc(-c3ccccc3)cc2)C[C@@H](CO)O1`, the Potency was inconclusive [inhibitor, single point]. With `Cc1cc(OCC(=O)Nc2ccc(CN3CCOCC3)cc2)c2c(C)cc(=O)oc2c1` the Potency was active: 18.4 µM. In the case of `CN(CC(=O)Nc1ccccc1Br)C(=O)CN1CCN(Cc2ccc(Cl)cc2)CC1`, the Potency is reported as inconclusive [inhibitor, single point]. In the case of `Cc1ccc(C(=O)Nc2cccc(C(=O)N/N=C/c3ccc(O)cc3)c2)cc1`, the “activity change, negative = growth inhibition” value is reported as inactive: -6.74%. In the case of `CCCCCCN=C1CC(C)(C)CC(=O)/C1=C(/O)CCC`, the Potency is reported as inconclusive [inhibitor, partial curve]. For `CC(C)N1C(=S)SC(C)(C)C1n1oc(=O)n(-c2cccc(Cl)c2)c1=O` (stereo not given), the “activity change, negative = growth inhibition” value was inactive: -19.1%. In the case of `CCOC(=O)c1ccccc1NC(=O)CSc1ncc(C(=O)OCC)c(N)n1`, the activity change, negative = growth inhibition is reported as inconclusive: -32.3% [inhibitor]. For `O=[N+]([O-])c1ccc(N2CCCCC2)cc1NCCOc1ccccc1`, the Potency was active: 29.1 µM. For `Cc1ccc(C)c(C(C)NC(=O)Cc2cccs2)c1` (stereo not given), the “activity change, negative = growth inhibition” value was inactive: 26.2%. For `COc1cc(OC)c(N(C)S(=O)(=O)c2cccc(C(=O)OCc3c(C)noc3C)c2)cc1Cl`, the Potency was inconclusive [inhibitor, single point]. In the case of `CCC1CCCCN1C(=O)COc1ccc(N(C)S(=O)(=O)c2ccc(C)cc2)cc1` (stereo not given), the Potency is reported as active: 20.6 µM. For `CCN(CC(=O)Nc1c(F)cccc1F)C(=O)Cc1csc(-c2ccccc2)n1`, the “activity change, negative = growth inhibition” value was inactive: -25.6%. For `CCCN1CCC(=NNc2ccc(S(=O)(=O)N3CCOCC3)cc2[N+](=O)[O-])CC1`, the Potency was active: 2.59 µM. With `CCCN(CCC)C(=O)Nc1cc(Cl)ccc1OC` the Potency was inconclusive [inhibitor, single point]. For `CCn1c2c(c(=O)n3ncc(C(=O)Nc4ccc(Cl)cc4C)c13)CN(Cc1ccc(OC)cc1)CC2`, the Potency was inconclusive [inhibitor, single point]. With `O=C1NC[C@H](CCCCN2C[C@H](Cc3ccccc3)N(CCc3ccc(O)cc3)C(=O)C2=O)N(CCC2CCCCC2)C1=O` the Potency was inconclusive [inhibitor, single point]. In the case of `CCCn1c(=O)c2sccc2n2c(CCCC(=O)NC3CCCCC3)nnc12`, the Potency is reported as inconclusive [inhibitor, single point]. In the case of `COc1cccc(C(=O)COc2ccc3c(C)cc(=O)oc3c2)c1`, the Potency is reported as active: 3.26 µM. For `COc1ccccc1CC(=O)Nc1ncc(C)s1`, the Potency was inconclusive [inhibitor, single point]. For `CC(C)(C)c1ccc(NC(=S)NCc2cccnc2)cc1`, the Potency was inconclusive [inhibitor, single point]. For `O=C(Nc1cccc(-c2cccc(Cl)c2)c1)C1CCN(C2CCC2)CC1`, the Potency was inconclusive [inhibitor, partial curve, poor fit]. For `O=C(CSCC(=O)OCn1nnc2ccccc2c1=O)Nc1ccc(Cl)cc1`, the Potency was active: 20.6 µM. In the case of `O=C(CNS(=O)(=O)c1cccs1)N1CCN(c2ccccc2F)CC1`, the Potency is reported as “inactive”. In the case of `CCn1c(SCC(=O)Nc2nc(C)cs2)nnc1-c1ccoc1C`, the “activity change, negative = growth inhibition” value is reported as inactive: -7.19%. In the case of `CCc1cccc2c(C(=O)COC(=O)c3ccccc3)c[nH]c12`, the “activity change, negative = growth inhibition” value is reported as inactive: -23.7%. With `COc1ccc(S(=O)(=O)N2CCN(CC(=O)Nc3cc(OC)cc(OC)c3)CC2)cc1` the Potency was inconclusive [inhibitor, single point]. For `NS(=O)(=O)c1cccc(NC(=O)c2cc3ccccc3o2)c1`, the Potency was inconclusive [inhibitor, single point]. With `CCOc1ccccc1NC(=O)C1CCCCN1S(=O)(=O)c1ccccc1` (stereo not given) the Potency was inconclusive [inhibitor, single point].
